# Inconclusive results, whose numbers are uncertain, are shown with a selection of clear calls. For some of these results: Potencies beside an inconclusive call are fits to weak or partial responses and may not hold up. Active and inactive are the calls of the source. Unless noted, the call rests on the fitted dose curve; in most records, active means well fitted curve in the direction sought with a large enough effect in the repeat runs; inconclusive means weak or mixed curves; inactive means no such curve, though single readings can be large; an effect the other way counts as inactive or inconclusive.
# Tests used:
# [1] = target: Peroxisome proliferator-activated receptor gamma (Homo sapiens) (UniProt P37231); assay: qHTS assay to identify small molecule antagonists of the peroxisome proliferator-activated receptor gamma (PPARg) signaling pathway (AID 743191; calls by dose curve; further: nearly all actives have a fitted effect of over 30% in size; on ratio activity, negative = inhibition: on the % scale 0 is the no-effect control and ±100 the full control effect); details: HEK293H PPARg-UAS-bla, beta-lactamase ratio, antagonist, 17 h; ratio activity, negative = inhibition: at 62.6 µM (top of the series) unless noted
# In short: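 GeneBLAzer PPARg UAS-bla HEK293H cells carrying a UAS-driven beta-lactamase reporter were plated at 3000 cells/well, preincubated 5 h at 37C, then given compound for 17 h at 37C; LiveBLAzer B/G FRET substrate was read after 1 h at room temperature.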
# [2] = qHTS assay to identify small molecule antagonists of the peroxisome proliferator-activated receptor gamma (PPARg) signaling pathway - cell viability counter screen (AID 743194); details: PPARg-bla HEK293H viability, CellTiter-Glo luminescence, 17 h, co-treated with 50 nM rosiglitazone; activity change, negative = cytotoxicity: at 62.6 µM (top of the series) unless noted; further: nearly all actives have a fitted effect of over 55% in size; on activity change, negative = cytotoxicity: on the % scale 0 is the no-effect control and ±100 the full control effect
# In short: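 PPARg-UAS-bla HEK293H cells were plated, rested 5 h at 37 C, then treated with compounds plus rosiglitazone (50 nM final) for 17 h at 37 C; viability was then read by CellTiter-Glo luminescence after 30 min at room temperature.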
# [3] = qHTS assay for small molecule agonists of the antioxidant response element (ARE) signaling pathway (AID 743202; active means well fitted activation curve with a large enough effect in the signal ratio in the repeat runs, not every such curve was filed as active; inconclusive means weak or mixed curves, or effect the other way; inactive means no such curve, though single readings can be large or run the other way; the % refers to the signal ratio; on activation: on the % scale 0 is the no-effect control and ±100 the full control effect); details: HepG2 ARE-bla reporter, beta-lactamase FRET, 16 h; activation: at 73.3 µM (top of the series) unless noted
# In short: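 Read-out: LiveBLAzer B/G FRET substrate fluorescence after 2 h at room temperature, following 16 h compound treatment at 37 C of HepG2 cells carrying an ARE-driven beta-lactamase reporter.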
# [4] = qHTS assay for small molecule activators of the heat shock response signaling pathway (AID 743210; active means well fitted activation curve with a large enough effect in the signal ratio in the repeat runs, with a control signal flat, not every such curve was filed as active; inconclusive means weak or mixed curves; the % refers to the signal ratio); details: HeLa HSE-bla reporter, beta-lactamase ratio, 5 h; activation: at 62.6 µM (top of the series)
# In short: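 HSE-bla HeLa cells (beta-lactamase reporter under heat shock response elements) were exposed to compounds for 5 h at 37 C, then loaded with LiveBLAzer B/G FRET substrate for 2.5 h at room temperature before fluorescence reading.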
# [5] = qHTS assay to identify small molecule agonists of the vitamin D receptor (VDR) signaling pathway - cell viability counter screen (AID 743224); details: VDR-bla HEK293T viability, CellTiter-Glo luminescence, 16 h; activity change, negative = cytotoxicity: at 62.6 µM (top of the series) unless noted; further: nearly all actives have a fitted effect of over 50% in size
# In short: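 VDR-bla cell line, quantitative HTS format; 16 h compound incubation (37C, 5% CO2); ATP-based CellTiter-Glo luminescence measured in the reporter assay wells.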
# [6] = qHTS assay for small molecule agonists of the antioxidant response element (ARE) signaling pathway - cell viability counter screen (AID 743203; calls by dose curve; further: nearly all actives have a fitted effect of over 55% in size); details: ARE-bla HepG2 viability, CellTiter-Glo luminescence, 16 h; viability change, negative = cytotoxic: at 73.3 µM (top of the series)
# In short: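 Cells (ARE-bla HepG2, 2,000/well) receive DMSO-dissolved compounds after a 5 hrs rest. Plates incubate 16 hrs at 37C/5% CO2. CellTiter-Glo luminescence is then recorded after 30 min at room temperature.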
# [7] = qHTS assay for small molecule activators of the heat shock response signaling pathway - cell viability counter screen (AID 743209); details: HSE-bla HeLa viability, CellTiter-Glo luminescence, 5 h; activity change, negative = cytotoxicity: at 62.6 µM (top of the series) unless noted; further: nearly all actives have a fitted effect of over 50% in size
# In short: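 Quantitative HTS format, Tox21 10K library. HeLa cells carrying an HSE-driven beta-lactamase reporter were treated 5 h at 37 C, then assessed for viability by CellTiter-Glo luminescence.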
# [8] = target: Peroxisome proliferator-activated receptor delta (Homo sapiens) (UniProt Q03181); assay: qHTS assay to identify small molecule agonists of the peroxisome proliferator-activated receptor delta (PPARd) signaling pathway (AID 743212; calls by dose curve); details: HEK293H PPARd-UAS-bla, beta-lactamase FRET ratio, 17 h; activation: at 62.6 µM (top of the series) unless noted
# In short: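 GeneBLAzer PPARd UAS-bla HEK293H cells (beta-lactamase reporter under UAS control), plated and rested 5 h at 37 C, then exposed to compounds in DMSO at 37 C; LiveBLAzer B/G FRET substrate added, 2 h room temperature, fluorescence read.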
# [9] = qHTS assay to identify small molecule antagonists of the peroxisome proliferator-activated receptor delta (PPARd) signaling pathway - cell viability counter screen (AID 743213); details: PPARd-bla HEK293H viability, CellTiter-Glo luminescence, 17 h; viability change, negative = cytotoxic: at 62 µM (top of the series) unless noted; further: nearly all actives have a fitted effect of over 50% in size
# In short: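 PPARd-bla HEK293H cells were treated with compounds plus agonist L165041 (300 nM final) for 17 h at 37 C. Viability was then read in the same wells by CellTiter-Glo luminescence after 30 min at room temperature.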
# [10] = target: Peroxisome proliferator-activated receptor delta (Homo sapiens) (UniProt Q03181); assay: qHTS assay to identify small molecule antagonists of the peroxisome proliferator-activated receptor delta (PPARd) signaling pathway (AID 743215; active means well fitted inhibition curve with a large enough effect in the signal ratio in the repeat runs, not every such curve was filed as active; inconclusive means weak or mixed curves, or effect the other way; inactive means no such curve, though single readings can be large or run the other way; the % refers to the signal ratio;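 further: cells stimulated with agonist L165041 at 300 nM final during compound exposure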; on ratio activity, negative = inhibition: on the % scale 0 is the no-effect control and ±100 the full control effect); details: HEK293H PPARd-UAS-bla, beta-lactamase FRET ratio, antagonist, 17 h; ratio activity, negative = inhibition: at 62 µM (top of the series) unless noted
# In short: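 Antagonist-mode beta-lactamase reporter screen: HEK293H cells with UAS-bla under PPARd control, stimulated by 300 nM L165041 (final) alongside test compound for 17 h at 37 C, then FRET fluorescence after 2 h substrate incubation.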
# [11] = qHTS assay to identify small molecule agonists of the farnesoid-X-receptor (FXR) signaling pathway - cell viability counter screen (AID 743218); details: FXR-bla HEK293T viability, CellTiter-Glo luminescence, 16 h; viability change, negative = cytotoxic: at 62.6 µM (top of the series) unless noted; further: nearly all actives have a fitted effect of over 45% in size
# In short: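 In GeneBLAzer FXR-UAS-bla HEK 293T cells, compounds act for 16 h at 37 C. Cell viability is then scored in the reporter wells by CellTiter-Glo, 30 min at RT, luminescence.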
# [12] = target: Vitamin D3 receptor (Homo sapiens) (UniProt P11473); assay: qHTS assay to identify small molecule antagonists of the vitamin D receptor (VDR) signaling pathway (AID 743223; active means well fitted inhibition curve with a large enough effect in the signal ratio in the repeat runs, not every such curve was filed as active; inconclusive means weak or mixed curves, or effect the other way; inactive means no such curve, though single readings can be large or run the other way; the % refers to the signal ratio); details: VDR-UAS-bla HEK293T, beta-lactamase FRET ratio, 16 h; activity change, negative = inhibition: at 61 µM (top of the series) unless noted
# In short: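 Antagonist mode uses 1alpha,25-dihydroxyvitamin D3 at 3 nM final as stimulus. VDR-bla cells receive compounds in DMSO, incubate 16 h at 37C, then a beta-lactamase FRET substrate for 2 h at room temperature before fluorescence measurement.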
# [13] = qHTS assay to identify small molecule antagonists of the vitamin D receptor (VDR) signaling pathway - cell viability counter screen (AID 743225); details: VDR-bla HEK293T viability, CellTiter-Glo luminescence, 16 h; viability change, negative = cytotoxic: at 61 µM (top of the series) unless noted; further: nearly all actives have a fitted effect of over 50% in size
# In short: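 Read-out: CellTiter-Glo luminescence measured 30 min after reagent addition at room temperature. Cells were VDR-bla HEK 293T exposed 16 h at 37C, 5% CO2, to compound with 3 nM final calcitriol agonist.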
# [14] = qHTS assay to identify small molecule antagonists of the farnesoid-X-receptor (FXR) signaling pathway - cell viability counter screen (AID 743221; active means well fitted cell-killing curve with a large enough effect in the repeat runs, not every such curve was filed as active; inconclusive means weak or mixed curves, or effect the other way; inactive means no such curve, though single readings can be large or run the other way; further: nearly all actives have a fitted effect of over 50% in size); details: FXR-bla HEK293T viability, CellTiter-Glo luminescence, 16 h; activity change, negative = cytotoxicity: at 62.6 µM (top of the series)
# In short: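 Luminescence from CellTiter-Glo measures cytotoxicity in GeneBLAzer FXR-UAS-bla HEK 293T cells. Cells were exposed to compounds with 50 uM chenodeoxycholic acid (final) for 16 h at 37 C, in wells also used for the reporter readout.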
# [15] = qHTS assay to identify small molecule agonists of the peroxisome proliferator-activated receptor delta (PPARd) signaling pathway - cell viability counter screen (AID 743211); details: PPARd-bla HEK293H viability, CellTiter-Glo luminescence, 17 h; activity change, negative = cytotoxicity: at 62.6 µM (top of the series); further: nearly all actives have a fitted effect of over 55% in size
# In short: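 HEK293H PPARd-bla, 3000 cells/well; 5 h preincubation 37C/5% CO2; cpd in DMSO, 17 h 37C; B/G FRET substrate 2 h RT; CellTiter-Glo 30 min RT, luminescence.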
# [16] = target: Bile acid receptor (Homo sapiens) (UniProt Q96RI1); assay: qHTS assay to identify small molecule antagonists of the farnesoid-X-receptor (FXR) signaling pathway (AID 743217; active means well fitted inhibition curve with a large enough effect in the signal ratio in the repeat runs, not every such curve was filed as active; inconclusive means weak or mixed curves, or effect the other way; inactive means no such curve, though single readings can be large or run the other way; the % refers to the signal ratio); details: HEK293T FXR-UAS-bla, beta-lactamase ratio, CDCA-stimulated, 16 h; activity change, negative = inhibition: at 62.6 µM (top of the series) unless noted
# In short: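 Beta-lactamase reporter under UAS control in HEK 293T cells; compound exposure 16 h at 37 °C in the presence of chenodeoxycholic acid (50 uM final); signal from B/G FRET substrate after 2 h at room temperature.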
# [17] = target: Bile acid receptor (Homo sapiens) (UniProt Q96RI1); assay: qHTS assay to identify small molecule agonists of the farnesoid-X-receptor (FXR) signaling pathway (AID 743220; active means well fitted activation curve with a large enough effect in the signal ratio in the repeat runs, not every such curve was filed as active; inconclusive means weak or mixed curves, or effect the other way; the % refers to the signal ratio); details: HEK293T FXR-UAS-bla, beta-lactamase FRET ratio, 16 h; activation: at 62.6 µM (top of the series) unless noted
# In short: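 Beta-lactamase reporter under UAS control in GeneBLAzer FXR HEK 293T cells (5000/well) measured with LiveBLAzer FRET substrate after 2 h at room temperature. Compound exposure lasted 16 h at 37C.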
# [18] = target: Vitamin D3 receptor (Homo sapiens) (UniProt P11473); assay: qHTS assay to identify small molecule agonists of the vitamin D receptor (VDR) signaling pathway (AID 743222; calls by dose curve); details: HEK293T VDR-UAS-bla, beta-lactamase FRET ratio, 16 h; activation: at 63.5 µM (top of the series) unless noted
# In short: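 Agonist activity measured in VDR-bla reporter cells. Exposure 16 h, 37C, 5% CO2; detection by B/G FRET substrate, 2 h RT.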
# Potency means the concentration at half of the fitted maximal effect; tags describe the fitted curve by direction and shape or compound fluorescence and quenching.
# UniProt Q03181, sequence (Q03181 whole entry, looked up): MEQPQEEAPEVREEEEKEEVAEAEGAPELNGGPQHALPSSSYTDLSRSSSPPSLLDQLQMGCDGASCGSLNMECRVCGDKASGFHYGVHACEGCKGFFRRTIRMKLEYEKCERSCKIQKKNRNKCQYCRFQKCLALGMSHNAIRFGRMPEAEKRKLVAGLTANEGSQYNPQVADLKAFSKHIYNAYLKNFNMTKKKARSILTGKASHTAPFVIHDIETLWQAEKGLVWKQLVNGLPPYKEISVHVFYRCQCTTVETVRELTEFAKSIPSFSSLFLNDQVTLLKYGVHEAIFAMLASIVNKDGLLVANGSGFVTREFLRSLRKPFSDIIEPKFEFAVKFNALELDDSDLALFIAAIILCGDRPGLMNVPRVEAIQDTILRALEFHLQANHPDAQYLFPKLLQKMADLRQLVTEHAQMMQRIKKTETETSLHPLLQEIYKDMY
# UniProt P11473, sequence (P11473 whole entry, looked up): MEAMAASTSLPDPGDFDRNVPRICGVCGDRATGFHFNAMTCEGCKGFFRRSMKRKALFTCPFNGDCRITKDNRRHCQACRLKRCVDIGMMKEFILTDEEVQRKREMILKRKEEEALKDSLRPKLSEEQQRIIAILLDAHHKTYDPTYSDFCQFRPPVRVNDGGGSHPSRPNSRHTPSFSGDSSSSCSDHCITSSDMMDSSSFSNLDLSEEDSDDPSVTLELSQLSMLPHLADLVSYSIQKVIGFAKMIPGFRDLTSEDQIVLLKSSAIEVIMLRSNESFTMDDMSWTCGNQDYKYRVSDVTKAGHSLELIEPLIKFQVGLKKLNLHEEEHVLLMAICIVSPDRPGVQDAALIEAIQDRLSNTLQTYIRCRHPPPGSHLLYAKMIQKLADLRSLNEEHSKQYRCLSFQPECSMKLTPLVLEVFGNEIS
# UniProt P37231, sequence (P37231 whole entry, looked up): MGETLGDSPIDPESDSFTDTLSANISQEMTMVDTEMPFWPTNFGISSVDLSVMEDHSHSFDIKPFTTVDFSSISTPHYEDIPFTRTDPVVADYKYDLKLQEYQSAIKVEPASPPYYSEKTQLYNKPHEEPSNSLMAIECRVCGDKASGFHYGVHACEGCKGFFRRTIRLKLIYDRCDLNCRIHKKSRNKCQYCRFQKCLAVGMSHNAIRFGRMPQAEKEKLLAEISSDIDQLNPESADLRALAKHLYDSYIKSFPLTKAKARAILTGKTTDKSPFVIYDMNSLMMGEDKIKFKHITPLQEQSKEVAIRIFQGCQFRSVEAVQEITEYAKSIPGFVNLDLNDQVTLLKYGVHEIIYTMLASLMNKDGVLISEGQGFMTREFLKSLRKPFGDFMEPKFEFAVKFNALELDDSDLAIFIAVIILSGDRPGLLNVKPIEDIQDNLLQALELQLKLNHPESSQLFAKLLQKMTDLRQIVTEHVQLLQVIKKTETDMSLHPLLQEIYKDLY
# UniProt Q96RI1, sequence (Q96RI1 whole entry, looked up): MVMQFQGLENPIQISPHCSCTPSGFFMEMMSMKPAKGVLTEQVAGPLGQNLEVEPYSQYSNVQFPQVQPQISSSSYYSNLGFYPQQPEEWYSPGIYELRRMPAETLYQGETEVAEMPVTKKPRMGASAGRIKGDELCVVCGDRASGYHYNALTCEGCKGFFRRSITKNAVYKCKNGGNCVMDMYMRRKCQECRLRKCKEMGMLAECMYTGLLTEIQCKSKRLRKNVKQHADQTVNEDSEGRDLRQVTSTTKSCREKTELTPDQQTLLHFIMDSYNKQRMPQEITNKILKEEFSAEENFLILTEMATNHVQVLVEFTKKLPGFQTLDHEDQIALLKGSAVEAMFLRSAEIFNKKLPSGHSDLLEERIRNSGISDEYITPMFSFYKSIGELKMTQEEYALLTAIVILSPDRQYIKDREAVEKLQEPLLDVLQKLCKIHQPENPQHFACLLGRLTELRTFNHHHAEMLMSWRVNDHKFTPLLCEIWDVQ
smiles,measurement,setting,value
Oc1ccc(-c2ccccc2)c(Cl)c1,Potency,[1],"inconclusive: 15.5 µM [inhibitor, partial curve]"
same,Potency,[2],"inconclusive: 21.9 µM [cytotoxic, partial curve, poor fit]"
same,Potency,[3],"inconclusive: 30.6 µM [falling, partial curve, poor fit]"
same,Potency,[4],inconclusive: 57.1 µM
same,Potency,[5],"inconclusive: 54.9 µM [cytotoxic, partial curve, poor fit]"
N/C(=N\N=C\c1ccc(Cl)cc1)N/N=C/c1ccc(Cl)cc1,"ratio activity, negative = inhibition",[1],inconclusive: -1.68%
same,Potency,[2],active: 21.1 µM
same,Potency,[3],"inconclusive: 26.6 µM [falling, partial curve]"
same,Potency,[6],active: 29.8 µM
same,Potency,[7],"inconclusive: 33.5 µM [cytotoxic, single point]"
same,Potency,[4],inconclusive: 31 µM
same,Potency,[8],inconclusive: 13.3 µM
same,Potency,[9],"inconclusive: 33.5 µM [cytotoxic, single point]"
same,"ratio activity, negative = inhibition",[10],inconclusive: -19%
same,Potency,[11],"inconclusive: 26.6 µM [cytotoxic, partial curve]"
same,Potency,[12],inconclusive: 26.8 µM
same,Potency,[5],active: 26.6 µM
same,Potency,[13],"inconclusive: 26.8 µM [cytotoxic, single point]"
O=C(N[C@H](CO)[C@H](O)c1ccc([N+](=O)[O-])cc1)C(Cl)Cl,Potency,[1],"inconclusive: 24.5 µM [inhibitor, partial curve, poor fit]"
same,"activity change, negative = cytotoxicity",[2],inconclusive: 9.49% [at 81.1 µM]
same,activation,[3],inconclusive: 19.5%
same,Potency,[4],inconclusive: 57.1 µM
same,"ratio activity, negative = inhibition",[10],inconclusive: -31.5%
same,Potency,[14],"inconclusive: 24.5 µM [rising, partial curve, poor fit]"
same,"activity change, negative = cytotoxicity",[5],inconclusive: 47.5% [at 81.1 µM]
same,Potency,[13],"inconclusive: 0.174 µM [cytotoxic, full curve, poor fit]"
CC(C)=CCNc1ncnc2c1ncn2[C@@H]1O[C@H](CO)[C@@H](O)[C@H]1O,Potency,[1],"inconclusive: 23.7 µM [rising, partial curve, poor fit]"
same,Potency,[2],active: 9.44 µM
same,Potency,[3],inconclusive: 3.35 µM [full curve]
same,Potency,[7],active: 13.3 µM
same,Potency,[4],inactive
same,Potency,[15],inconclusive: 21.1 µM [cytotoxic]
same,Potency,[9],"inconclusive: 11.9 µM [cytotoxic, single point]"
same,"activity change, negative = inhibition",[16],inconclusive: 39.9%
same,Potency,[11],"inconclusive: 13.3 µM [cytotoxic, partial curve]"
same,Potency,[14],"inconclusive: 33.5 µM [falling, single point]"
same,Potency,[13],"inconclusive: 12 µM [cytotoxic, partial curve, poor fit]"
CS(=O)(=O)CCNCc1ccc(-c2ccc3ncnc(Nc4ccc(OCc5cccc(F)c5)c(Cl)c4)c3c2)o1,Potency,[1],"inconclusive: 2.37 µM [rising, full curve]"
same,Potency,[2],active: 15 µM
same,Potency,[3],"inconclusive: 5.96 µM [rising, partial curve, poor fit]"
same,Potency,[6],active: 26.6 µM
same,Potency,[7],active: 26.6 µM
same,Potency,[4],inconclusive: 16.2 µM
same,Potency,[15],active: 9.44 µM
same,Potency,[8],"inconclusive: 29.8 µM [rising, partial curve]"
same,Potency,[9],active: 21.1 µM
same,Potency,[10],"inconclusive: 23.7 µM [rising, partial curve]"
same,Potency,[16],"inconclusive: 23.7 µM [rising, partial curve]"
same,Potency,[11],active: 10.6 µM
same,Potency,[17],"inconclusive: 26.6 µM [activator, partial curve, poor fit]"
same,Potency,[14],active: 26.6 µM
same,Potency,[18],inconclusive: 33.5 µM [fluorescent]
same,Potency,[12],inconclusive: 26.8 µM [fluorescent]
same,Potency,[13],active: 21.3 µM
CC[C@@]1(O)C(=O)OCc2c1cc1n(c2=O)Cc2c-1nc1ccccc1c2/C=N/OC(C)(C)C,Potency,[1],"inconclusive: 26.6 µM [fluorescent, partial curve]"
same,Potency,[2],"inconclusive: 13.3 µM [cytotoxic, partial curve, poor fit]"
same,Potency,[3],"inconclusive: 13.3 µM [rising, single point]"
same,Potency,[4],inconclusive: 40.6 µM [fluorescent]
same,Potency,[8],"inconclusive: 26.6 µM [rising, partial curve]"
same,Potency,[9],"inconclusive: 0.0335 µM [cytotoxic, full curve, poor fit]"
same,Potency,[10],"inconclusive: 11.9 µM [rising, partial curve]"
same,Potency,[11],active: 13.3 µM
same,Potency,[14],inconclusive: 15 µM
same,Potency,[18],"inconclusive: 29.8 µM [fluorescent, partial curve]"
same,Potency,[12],"inconclusive: 23.9 µM [rising, partial curve]"
same,Potency,[5],"inconclusive: 15 µM [cytotoxic, partial curve, poor fit]"
same,Potency,[13],"inconclusive: 13.4 µM [cytotoxic, partial curve]"
